Results: PubChem BioAssay AID1347073 (National Center for Advancing Translational Sciences (NCATS), 2019)
In all, about 45,000 compounds went through this assay and about 200 (0.44%) were called active. Not shown: some 7% with an inconclusive outcome. Calls follow the shape of the dose curve; as a rule, active = well fitted activation curve with a large enough effect; inconclusive = small, poorly fitted or top-dose-only effect; inactive = no such curve, though single readings can be large or run the other way. Some of the results follow.

assay: qHTS of TDP-43 Inhibitors: NCGC Sytravon Library Screen; details: yeast TDP-43 toxicity rescue, BacTiter-Glo growth, 24 h; series mostly up to 46.1 µM; growth rescue (activation): at the top concentration; also: nearly all actives have a fitted effect of over 55% in size; as to growth rescue (activation): 0% is about no effect
Summary of the method: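 TDP-43-expressing yeast, pregrown in raffinose, seeded at OD600 0.02 in galactose medium with compound for 24 hr at 30 deg C. Growth read by BacTiter-Glo luminescence, so rescue of toxicity appears as activation.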
Potency is read from the fitted curve at half-maximal effect.

Row | SMILES | growth rescue (activation) | Potency
1 | CC(C)NC(=O)COc1ccccc1C#N | inactive: -6.17% | –
2 | COc1ccc(NC(=O)CCn2ccnc2)c(OC)c1 | inactive: -12.3% | –
3 | CC1CC(C)CN(S(=O)(=O)c2ccc(C(=O)NNC(=O)c3ccccc3F)cc2)C1 (centres undefined) | inactive: -2.42% | –
4 | Cn1cnnc1SCC(=O)NN(c1ccccc1)c1ccccc1 | inactive: 7.64% | –
5 | CCCCCn1c(=NC(=O)c2cccnc2)c(C#N)cc2c(=O)n3cccc(C)c3nc21 | inactive: -9.04% | –
6 | CCCCNC(=O)c1cc(C)nn1-c1ccccc1 | inactive: 2.03% | –
7 | COc1ccc(C2C(C#N)=C(N)Nc3nc4ccccc4n32)cc1 (centres undefined) | inactive: 4.07% | –
8 | O=C(COC(=O)c1ccco1)c1ccccc1 | inactive: -3.4% | –
9 | NNC(=O)COc1ncn(-c2ccccc2)n1 | inactive: 14.2% | –
10 | COc1cc(/C=C/C(=O)Nc2ccc(OC)c(S(=O)(=O)N3CCOCC3)c2)ccc1OCC#N | inactive: -28.5% | –
11 | N=C1c2ccccc2CN1NC(=O)c1cccc(S(=O)(=O)N2CCCCC2)c1 | inactive: -11.8% | –
12 | O=C(NCCc1nc2ccccc2[nH]1)/C(=C/c1ccco1)NC(=O)c1ccccc1Br | inactive: 12.8% | –
13 | Cc1ccc(-n2c(C)cc(=O)cc2C)cc1[N+](=O)[O-] | inactive: 3.08% | –
14 | Cc1ccc(OCC(=O)Nc2cnn(CCCC(=O)O)c2)c([N+](=O)[O-])c1 | inactive: 0.0254% | –
15 | CC(C)C(NS(=O)(=O)c1ccccc1F)C(=O)N1CCc2ccccc2C1 (centres undefined) | inactive: 14.5% | –
16 | CC1CN(C(=O)/C=C/c2ccccc2[N+](=O)[O-])CC(C)O1 (centres undefined) | inactive: -2.95% | –
17 | Cc1ccc(C(=O)OCC(=O)N2CCOCC2)cc1 | inactive: 2.22% | –
18 | Cc1nonc1NC(=O)CSc1nnc(N)s1 | inactive: -0.184% | –
19 | Cc1nc2ccc([N+](=O)[O-])cc2[nH]1 | inactive: -0.0041% | –
20 | COc1ccc(OCC(=O)NC(=S)Nc2ccc3c4c(cccc24)CC3)cc1 | inactive: 4.88% | –
21 | COc1ccc(N(CC(=O)NCC2CCCO2)C(=O)CCC(=O)Nc2cc(C)on2)cc1OC (centres undefined) | inactive: -0.366% | –
22 | Cc1ccc(NC(=O)CC2Nc3cccc4cccc(c34)NC2=O)cc1 (centres undefined) | inactive: -1.74% | –

Row | SMILES | growth rescue (activation) | Potency
23 | COc1cccc(CNc2ccccn2)c1O | inactive: 2.94% | –
24 | O=C(COc1ccccc1[N+](=O)[O-])NCC1(N2CCOCC2)CCCCC1 | inactive: 22.4% | –
25 | NS(=O)(=O)c1cccc(NC(=O)CSc2nn(-c3ccccc3)c(=S)s2)c1 | inactive: 22.5% | –
26 | CCN(CC)c1ccc(/C=N/NC(=O)c2nnn(-c3nonc3N)c2C(C)C)c(O)c1 | inactive: -23.5% | –
27 | CSc1nc2c(c(-c3ccc(O)cc3)c1C#N)CCC2 | inactive: -1.65% | –
28 | Cn1c(-c2ccccc2)c(C(=O)CC#N)c2ccccc21 | inactive: 18.1% | –
29 | COc1ccc(CNC(=O)c2coc(=O)c3ccccc23)cc1 | inactive: 26.9% | –
30 | O=C(c1cnn2c(C(F)F)cc(-c3ccccc3)nc12)N1CCc2ccccc21 | inactive: -0.146% | –
31 | COc1ccc(C(=O)N2CCN(c3cnn(-c4ccccc4)c(=O)c3Cl)CC2)cc1 | inactive: 14.4% | –
32 | Cc1ccc2nc(SCC(=O)Nc3cc(C)on3)c(C)cc2c1 | inactive: 9.05% | –
33 | Nc1ncnc(Nc2cc(Cl)cc(Cl)c2)c1[N+](=O)[O-] | inactive: 9.93% | –
34 | CCc1nc2c(OCc3ccc(S(C)(=O)=O)cc3)cccn2c1N(C)C(=O)c1ccccc1F | inactive: -14.7% | –
35 | CCCCn1c(=O)[nH]c(=O)c2c1nc(-c1cc(Cl)c(OC)c(OC)c1)n2C | inactive: 12.3% | –
36 | COc1ccccc1CN(C)C(=O)C(NC(=O)Cc1cccc2ccccc12)C(C)C (centres undefined) | inactive: 31.9% | –
37 | CC(=O)c1ccc(NC(=O)CSc2n[nH]c(-c3cccnc3)n2)cc1 | inactive: -6.08% | –
38 | CCN(CC)C(CNC(=O)c1cc(=O)[nH]c2ccccc12)c1ccccc1Cl (centres undefined) | inactive: 1.01% | –
39 | COc1ccc(NC(=O)Cc2c(SC)c3ccccc3n2Cc2ccccc2)cc1 | inactive: 9.61% | –
40 | Cc1cc(NS(=O)(=O)c2ccc(NC(=O)C3CCCCC3)cc2)no1 | inactive: -1.47% | –
41 | O=C(NCc1ccccc1)c1cccc(S(=O)(=O)N2CCCCC2)c1 | inactive: 13.5% | –
42 | CCCCC(=O)Nc1nnc(SCC(=O)NC2CC2)s1 | inactive: -9.26% | –
43 | CC(C)CN(C(=O)c1cc2ccccc2o1)c1c(N)n(CC(C)C)c(=O)[nH]c1=O | inactive: 11.3% | –
44 | CCOc1ccccc1NC(=O)CN1CCC(NC(=O)Nc2ccccc2)CC1 | inactive: -0.377% | –

Row | SMILES | growth rescue (activation) | Potency
45 | C=C1CSc2nc(=O)c3c(C)c(C)sc3n21 | inactive: 4.48% | –
46 | CCOC(=O)c1oc2c(CN3CCN(CCO)CC3)c(O)c(CC)cc2c(=O)c1-c1nc2ccccc2s1 | inactive: -2.19% | –
47 | Nc1ccc(C(=O)O)cc1S(=O)(=O)O | inactive: 8.82% | –
48 | CN1C(=O)/C(=C2\SC(N)=NC2=O)c2ccccc21 | inactive: 13.3% | –
49 | Cc1ccc(S(=O)(=O)NNC(=O)C2COc3ccccc3O2)cc1 (centres undefined) | inactive: 8.88% | –
50 | NC(c1csc(NC(=O)Nc2cccc(Cl)c2)n1)c1ccccc1Cl (centres undefined) | inactive: 4.71% | –
51 | CC(C)(C)C1CCC(=NNC(=S)Nc2cccnc2)CC1 (centres undefined) | inactive: -6.16% | –
52 | CN(c1ccccc1C(=O)Nc1ccc(S(=O)(=O)N2CCOCC2)cc1)S(C)(=O)=O | inactive: -31.4% | –
53 | O=C(/C=C/c1cccc([N+](=O)[O-])c1)NCCSCc1cccc(Cl)c1 | – | active: 12.6 µM
54 | CN(CC(=O)NCC1CCCCC1)S(=O)(=O)c1ccc(Cl)cc1 | inactive: -3.43% | –
55 | CCC(=O)N1CCc2cc(S(=O)(=O)Nc3ccccc3C)ccc21 | inactive: 1.27% | –
56 | Cc1ccc(S(=O)(=O)N2CCOCC2)cc1NC(=O)CSc1nccn1C | inactive: 6.99% | –
57 | COc1ccc(NS(=O)(=O)c2c(C)cc(C)cc2C)cn1 | inactive: 18.4% | –
58 | Cc1ccc(-c2csc(NC(=S)NC(=O)c3cc4ccccc4o3)n2)cc1 | inactive: -1.1% | –
59 | Cc1nc(C)c(C(=O)OCC(=O)Nc2ccccc2SCC#N)s1 | inactive: 28.7% | –
60 | CC(C)(C)NC(=O)CN1CCC(NC(=O)C23CC4CC(CC(C4)C2)C3)CC1 | inactive: 1.4% | –
61 | O=C(O)Cc1ccc(NC(=O)c2ccc3c(c2)C(=O)N(CC2CCCO2)C3=O)cc1 (centres undefined) | inactive: 11.5% | –
62 | CCCCCOc1ccccc1C(=O)NCCCCCC(=O)O | inactive: 15.7% | –
63 | CCCCOc1ccc(C(=S)N2CCC(C(N)=O)CC2)cc1 | inactive: 6.51% | –
64 | COc1ccccc1N1CCN(Cc2nc3ccccc3[nH]2)CC1 | inactive: 3.76% | –
65 | CC(C)N1CCCC(C)(C(=O)Nc2ccccc2)C1 (centres undefined) | inactive: 9.51% | –
66 | O=C(OCc1cncs1)c1ccccc1Cl | inactive: 23.5% | –

Row | SMILES | growth rescue (activation) | Potency
67 | O=C(Nc1ccccc1)c1cc([N+](=O)[O-])ccc1N1CCCCC1 | inactive: 9.44% | –
68 | CCc1nc2ccc(C(=O)Nc3cc(-c4ccccc4)ccc3OC)cn2c1N(C=O)CCC(C)C | inactive: 14.1% | –
69 | Cc1ccc(SCC(=O)c2cc(C)c(OC(=S)N(C)C)c(C)c2)cc1 | inactive: 1.6% | –
70 | CC1(C(=O)Nc2ccc3nc[nH]c3c2)CCN1C(=O)c1ccccc1CCc1ccccc1 (centres undefined) | inactive: 0.58% | –
71 | O=C(C(=O)N1CCOCC1)c1cn(CCOc2ccccc2)c2ccccc12 | inactive: 3.24% | –
72 | CCN(CC)CCNc1nc(SC)nc2sc3c(c12)CCN(C)C3 | inactive: 3.23% | –
73 | CCCn1c(SCC(=O)NCCc2ccccc2)nnc1C(C)C | inactive: 19.6% | –
74 | CCCC(=O)Nc1nnc(/C=C/c2ccc(OC)cc2)s1 | inactive: 4.13% | –
75 | CCOc1ccc2c(c1)c(N=O)c(O)n2C | inactive: 4.41% | –
76 | COCCn1c(Cc2ccccc2)nnc1SCC(=O)NC1CC1 | inactive: -3.54% | –
77 | O=[N+]([O-])c1cccc(CSc2nnc(Cc3ccccc3)n2-c2ccc(F)cc2)c1 | inactive: 19% | –
78 | S=c1nc2ccccc2c2nc(-c3ccccc3)[nH]n12 | inactive: 5.52% | –
79 | COc1cc(-c2cc(NC(C)=O)c3ncc(-c4cc(OC)c(OC)c(OC)c4)n3c2)cc(OC)c1OC | inactive: 3.55% | –
80 | COc1ccc(-c2nc3c(c(=O)[nH]c(=O)n3Cc3ccccc3)n2C)cc1 | inactive: 1.18% | –
81 | CCc1ccc(C(=O)COC(=O)CNC(=O)c2ccc(Br)o2)cc1 | inactive: 2.15% | –
82 | COc1ccc(C(CCN)Cc2ccccc2)cc1 (centres undefined) | inactive: 9.69% | –
83 | COc1cc(OC)cc(C(=O)NNC(=S)NCc2ccco2)c1 | inactive: 13.7% | –
84 | Cc1ccc(S(=O)(=O)N(C)c2ccc(OCC(=O)Nc3nc(-c4ccccc4)cs3)cc2)cc1 | inactive: -1.89% | –
85 | COc1ccc(CCNC(=O)CCc2cn(C)c3ccccc23)c(OC)c1 | inactive: 11.4% | –
86 | Cc1c(Cl)c(C(F)(F)F)nn1CC(=O)NN | inactive: 13.5% | –
87 | CN1CCc2c(C#N)c(N3CCCCC3)nc(N3CCOCC3)c2C1 | inactive: 3.78% | –
88 | C=CCN(c1ccc(C(=O)Nc2ccc(C)c(C)c2)cc1)S(C)(=O)=O | inactive: 2.16% | –

Row | SMILES | growth rescue (activation) | Potency
89 | COc1ccccc1NC(=O)c1ccc(S(=O)(=O)NCc2ccco2)cc1 | inactive: 15.1% | –
90 | CC(=O)Nc1ccc(SCCC2CCCCN2C)cc1 (centres undefined) | inactive: 6.51% | –
91 | CC1(C(=O)NS(=O)(=O)C2CC2)CCN(C(=O)c2ccc(F)c(Cl)c2)C1 (centres undefined) | inactive: -7.1% | –
92 | CCOC(=O)c1c(-c2ccc(C)o2)csc1NC(=S)NC(=O)c1cccs1 | inactive: 21.8% | –
93 | Cc1cc(C)c2cc(C#N)c(N3CCCN(C(=O)c4cnccn4)CC3)nc2c1 | inactive: 28.9% | –
94 | CCC(=O)Nc1ccc2c(c1)nc(CCN1CCN(c3ccccn3)CC1)n2C | inactive: -10.8% | –
95 | CC1(C)CN(O)CCN1O | inactive: -3.91% | –
96 | N#CC1=C(N)Oc2cc(N)ccc2C1c1ccc(F)cc1F (centres undefined) | inactive: 10.7% | –
97 | CCNC(=O)C1CCCN(Cc2ccc(C(=O)OCC)cc2)CC1 (centres undefined) | inactive: 2.34% | –
98 | CC(C)Cn1c(N)c(C(=O)COC(=O)/C=C/c2cccs2)c(=O)n(C)c1=O | inactive: -7.98% | –
99 | CN1CCN(c2ncnc3c2ncn3[C@H]2CN(Cc3ccc(F)cc3)C[C@@H](CO)O2)CC1 | inactive: 3.51% | –
100 | CS(=O)(=O)c1nc(-c2ccc(F)cc2)cc(C(F)(F)F)n1 | inactive: -6.68% | –
101 | CCN(C(=O)Cn1c(=O)oc2ccccc21)c1cccc(C)c1 | inactive: -4.09% | –
102 | CCc1cc(C(=O)NNC(=O)CCl)sc1C | inactive: 18.8% | –
103 | Cc1cc(C)c2[nH]c(=O)c(CN(Cc3ccco3)C(=O)C3CCCO3)cc2c1 (centres undefined) | inactive: 8.4% | –
104 | COc1ccc(C(=O)NC2CCCCC2)cc1S(=O)(=O)N1CCOCC1 | inactive: -1.55% | –
105 | CCCC(=O)N(c1ccc2oc(C)c(C(C)=O)c2c1)S(=O)(=O)c1ccc(C)c([N+](=O)[O-])c1 | inactive: -1.02% | –
106 | CCOc1cc(/C=N/NC(=O)CN2CCCCC2)ccc1OCc1ccc(Cl)cc1 | inactive: 28.6% | –
107 | COCCOc1cc(NC(=O)CS(=O)(=O)CC(=O)N(C)C)c(Cl)cc1Cl | inactive: 2.77% | –
108 | CCN(CC)S(=O)(=O)c1ccc(N2CCOCC2)c(NC(=O)c2ccc3ccccc3c2)c1 | inactive: 2.64% | –
109 | Cc1cc(C)n(C(=O)CSc2nnc(SCC(=O)n3nc(C)cc3C)s2)n1 | inactive: 8.31% | –
